This is an account of results in PubChem BioAssay AID463173 (ICCB-Longwood Screening Facility, Harvard Medical School, 2010).

The campaign covered roughly 52,000 compounds. About 1,700 (3.3%) were called active. Rule as the data show it: active = survival mostly below about 52% (no sharp cut-off); inactive = mostly above about 56%. The list shows a part of the results.

The test deals with Wild type. The experiment in a line: growth inhibition of S. aureus wild type versus tarO mutant, primary screen, teichoic acid synthesis inhibitors, RN4220, OD600 (AID 463173). The settings on record: S. aureus RN4220 wild type/DeltatarO growth, OD600, 18 h, active compounds read low, screened at 18.75 µg/mL (by protocol).
Regarding `Cc1cc(C(=O)OC(C)C)ccc1-c1ccc(C=C(C#N)C#N)o1`, the survival is inactive: 113%.

As for `CCc1cc2c(cc(C(=O)OC)n2Cc2nc(-c3ccc(C)cc3)oc2C)s1`, the survival is inactive: 16%.

As for `O=C(CSc1nc2c([nH]c3ccccc32)c(=O)n1-c1cccc(C(F)(F)F)c1)N1CCc2ccccc21`, the survival was inactive: 77%.

Turning to `O=C(O)c1ccc(CNCc2ccccc2Cl)s1`, the survival was inactive: 88%.

Regarding `CCc1ccc(C(=O)N2CCC(c3nc(-c4ccc(S(=O)(=O)N5CCCC5)cc4)no3)CC2)cc1`, the survival was inactive: 95%.

As for `COc1ccc(/C=C2\SC(=S)N(CCC(=O)NCCO)C2=O)cc1`, the survival was inactive: 119%.

In the case of `COc1ccc(C(=O)Nc2nnc(SCc3cc(=O)n4cccc(C)c4n3)s2)cc1`, the survival was inactive: 81%.

`COC(=O)/C=C1/N/C(=N/c2nc3cc(C)ccc3o2)NC1=O`: the survival was inactive: 97%.

As for `O=S(=O)(c1ccc(Br)cc1)c1nnn2c1nc(NCc1ccc3c(c1)OCO3)c1sccc12`, the survival was inactive: 90%.

With `Cc1cccc(CNC(=O)c2ccc3oc(=O)n(Cc4ccccc4)c3c2)c1`, the survival was inactive: 60%.

As to `COc1cc(Cl)c(C)cc1NC(=O)Cn1ncc2c1-c1cc(C)ccc1OC2`, the survival was inactive: 87%.

As for `CCCSc1ncc(Cl)c(C(=O)Nc2c(C(=O)Nc3ccc(OC)cc3)oc3ccccc23)n1`, the survival is inactive: 85%.

Take `CCCOc1ccc(CNC(=O)CCCn2nc(C)c3sc4ccccc4c3c2=O)cc1`: the survival was inactive: 112%.

With `Cc1ccc(CNC(=O)CCCCCn2c(=O)c3sccc3n(CC(=O)Nc3c(C)cc(C)cc3C)c2=O)cc1`, the survival is inactive: 83%.

Turning to `O=C(Nc1cc(Cl)ccc1Cl)c1cc2nc(-c3ccc4c(c3)OCO4)cc(C(F)(F)F)n2n1`, the survival was inactive: 80%.

On to `CC1CCCN(Cc2nc3c(c(=O)n(C)c(=O)n3C)n2Cc2ccc(Cl)cc2)C1` (stereo not drawn), for which the survival was inactive: 89%.

For `CCOC(=O)Cc1nnc2c3ccccc3n(C)c2n1`, the survival is inactive: 118%.

For `Cc1cc(C)cc(NC(=O)CSc2oc(-c3ccco3)nc2S(=O)(=O)c2ccc(Cl)cc2)c1`, the survival was inactive: 91%.

`Cn1nc(C(=O)NCc2ccccc2Cl)c2c1-c1ccccc1S(=O)(=O)C2`: the survival is inactive: 102%.

As for `CSc1ccc(CNC(=O)C2CCN(c3nc4ccccc4nc3C(F)(F)F)CC2)cc1`, the survival was inactive: 94%.

In the case of `COc1ccc(Cl)cc1NC(=O)C1CCN(S(=O)(=O)c2ccc3c(c2)CC(C)N3C(C)=O)CC1` (stereo not drawn), the survival is inactive: 83%.

For `COc1ccc(-n2ncc(C(=O)N3CCN(c4cc(C)ccc4C)CC3)c2C2CCN(C(=O)OC(C)(C)C)CC2)cc1`, the survival is inactive: 59%.

For the molecule `COc1ccc(CNCc2c(C(=O)O)c(C)n(Cc3ccccc3C)c2C)c(OC)c1`, the survival is inactive: 127%.
